The supplement of paper PMC11417369
The list shows a part of the results.

Test system: PfSIP2 AP2 domain 1 (GST-tagged)
Experiment: gcPBM binding intensity (ln(normalized median fluorescence intensity)); higher = stronger DNA binding
In short: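 Probes on an Agilent 4 × 180k array were primer-extended, double-stranded and 36 bp long, taken from intergenic genomic regions, with negative controls added. GST-tagged P. falciparum DNA-binding domains from E. coli, about 25 μg on average, were applied to the array for 1 h in 1× PBS containing 1% milk, 0.2 mg/ml BSA, 0.5% salmon testes DNA and 0.03% Triton X-100. Binding intensity, obtained after Alexa488 anti-GST antibody detection and a 488 nm scan, is the highest Masliner-normalised natural-log median intensity across replicate spots of either probe orientation.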

Sequence | gcPBM binding intensity (ln)
CATTTACCCTTATTAACACACAAAATATAATACGCT [CACACA_site2565] | 7.21
ATAGAAAGTGACAATTGTACATACATATTATATATA [XGTACX_site4390] | 7.49
TTCTTGGAATACAAGTGTACTTTATTATTATTATTA [XGTACX_site5997] | 7.25
AAAAAAAAAAAAAAAAAAAAATTTCAATTATATTGA [GTGCAC_negctrl_site642] | 8.1
TTTTTTTTTGCCTACTGTACTATTTTTGAGCTCACC [XGTACX_site7967] | 6.99
AAAATTATAATATATACACACATATATATATTAAAT [CACACA_site473] | 6.99
TTTTTTTTTTTTTGGTGTACCATAGGTAAAATGATT [XGTACX_site8020] | 7.2
ATTTATGGAAAAAGAACACACAATCAAACAAAAATA [CACACA_site3707] | 7.06
ATATAAATGAATATATGTACATATATATATATATAT [XGTACX_site6361] | 9.12
TGACCTGTTCAGGTAACACACATATAAACCCATACA [CACACA_site31] | 7.1
ATGCTATAGGATCTTACACACATTTTTGTAAAAAAA [CACACA_site1868] | 7.01
TATATATATATATATGTGCACTGAAAGAATTATACA [GTGCAC_site9586] | 10.3
TTTTTCTAATTATGCACACATATCAAAATATTCAAT [CACACA_site2749] | 9.18
GCTCAATTTTTGGGTACACACAAATGTATAAGAATA [CACACA_site7178] | 7.18
ATATATATAGAAATATGTACGAAAAAAATATCACAT [XGTACX_site746] | 7.63
TATTTATTTTATATATGTACATAATATATTCTTATA [XGTACX_site1619] | 7.05
AAAATCAAAAAAACAAGTACAAATGTGGACTTTTTT [XGTACX_site5363] | 6.65
TGTTCTATGGTTTGTAGTACTTTAATAAATATAAAT [XGTACX_site7823] | 7.44
AATAAGCTCACGTGTCGTACATTTTTTAAAACAACC [XGTACX_site4707] | 7.23
TCAAAAAAAAAAAAAAAAAAAAAAAAAAAAAAAAAA [CACACA_negctrl_site1753] | 7.27
AAGAACTCATTAATAATGTAATATTTTATAATTTAG [CACACA_negctrl_site321] | 6.55
ATAATAAAACTCAAAGTGCATTAGAATAATTGTAAA | 7.65
ATTCATAAATATATTTGTACATATTATATATAAATA [XGTACX_site1907] | 7.25

Sequence | gcPBM binding intensity (ln)
TATACATATTTCTATTGTACATAAACTAAATCTTCA [XGTACX_site28] | 6.86
ACAATAAATATGTGGTTGCACTTATAATATATTTAT | 7.81
TAATATATAACGTGCACACACACATTTACGTATGAA [CACACA_site1832] | 9.88
AGCACCCACCAACACACACACACACCCACCCACCCA [CACACA_site8011] | 7.8
TACAATTGTAAAGGCGCACACATATATATATATATA [CACACA_site1392] | 9.39
GATATTATTGCATATTTACACACGTACTAATTTAAA [CACACA_site8231] | 7.76
TTTTTATAATAAAAAAATATAACTATATTAAGCCAC [CACACA_negctrl_site555] | 7.1
TATTTTTATCAATTCACACATAAATATATTTATATG [CACACA_site5547] | 7.07
CACAGTGATATAAAAACACACATGAATTAAAATTTC [CACACA_site4999] | 6.92
CATACATACAGACACACACACATATTTATATTTATA [CACACA_site6172] | 7.5
GTTAATTATTAAATTTGTACTCATATATATTATATA [XGTACX_site6862] | 7.34
TCCCTTAATTTTGTGTGTACATATAATATATTTTTA [XGTACX_site2789] | 7.09
GGAATAGTGATATATACACACAAATACATATTTATA [CACACA_site6183] | 6.98
AATTAATAAGAAAGGTGTACAGAAAAAAAAAAATAT [XGTACX_site2106] | 7.42
AATATATAGGAAAAAGTGCAATAAATGAACAAAATA | 7.56
TTTAATAAAATTCTAGTGCAAAAAGGAAAAAACAAA [GTGCAC_site9642] | 7.93
AATTTTGATATATATTGTACGCATTTTTAAATGCCA [XGTACX_site7694] | 6.99
AAAAGAAATGACAAATTGGATAGATAATAGGGGGTA [GTGCAC_negctrl_site262] | 7.04
TTCTTAATTTAAAATTGTACTTAAGTAATACTTATG [XGTACX_site3928] | 6.83
GAAGTTTTTTAAAGATGTACTTTTTAAAAATAATGT [XGTACX_site1975] | 7.28
TTATTTACTTATTGCACACATATAAAATATATTTAT [CACACA_site3101] | 7.74
AAAAAAAAAAAAAATACACACATATATAAATAAATA [CACACA_site6459] | 7.1
